In article PMC2408963 (PLoS ONE, 2008):

T1: murine TAP1/TAP2 complexes (mouse, UniProt P21958 1-724; P36371 1-702)
T1 construct: also called mouse TAP complexes; murine TAP transporter
T1 sequence (looked up) 1: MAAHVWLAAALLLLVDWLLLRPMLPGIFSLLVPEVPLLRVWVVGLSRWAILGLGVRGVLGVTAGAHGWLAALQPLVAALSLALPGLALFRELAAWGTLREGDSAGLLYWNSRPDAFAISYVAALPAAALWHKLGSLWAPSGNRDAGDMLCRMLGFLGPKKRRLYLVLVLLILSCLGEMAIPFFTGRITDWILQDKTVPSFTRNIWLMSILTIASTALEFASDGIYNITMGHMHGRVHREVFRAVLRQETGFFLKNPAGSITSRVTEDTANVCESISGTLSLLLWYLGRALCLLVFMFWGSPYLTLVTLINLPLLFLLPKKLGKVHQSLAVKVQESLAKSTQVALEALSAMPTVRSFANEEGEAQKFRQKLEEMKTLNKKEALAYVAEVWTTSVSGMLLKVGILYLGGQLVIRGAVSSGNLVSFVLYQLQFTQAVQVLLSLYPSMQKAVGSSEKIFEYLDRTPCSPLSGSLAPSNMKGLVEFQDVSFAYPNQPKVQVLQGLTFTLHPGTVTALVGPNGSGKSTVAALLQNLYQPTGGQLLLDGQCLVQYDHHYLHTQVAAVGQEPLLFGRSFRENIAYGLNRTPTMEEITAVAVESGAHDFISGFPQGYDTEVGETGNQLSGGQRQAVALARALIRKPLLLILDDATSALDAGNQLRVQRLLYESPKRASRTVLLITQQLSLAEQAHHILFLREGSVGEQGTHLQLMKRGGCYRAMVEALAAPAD
T1 sequence (looked up) 2: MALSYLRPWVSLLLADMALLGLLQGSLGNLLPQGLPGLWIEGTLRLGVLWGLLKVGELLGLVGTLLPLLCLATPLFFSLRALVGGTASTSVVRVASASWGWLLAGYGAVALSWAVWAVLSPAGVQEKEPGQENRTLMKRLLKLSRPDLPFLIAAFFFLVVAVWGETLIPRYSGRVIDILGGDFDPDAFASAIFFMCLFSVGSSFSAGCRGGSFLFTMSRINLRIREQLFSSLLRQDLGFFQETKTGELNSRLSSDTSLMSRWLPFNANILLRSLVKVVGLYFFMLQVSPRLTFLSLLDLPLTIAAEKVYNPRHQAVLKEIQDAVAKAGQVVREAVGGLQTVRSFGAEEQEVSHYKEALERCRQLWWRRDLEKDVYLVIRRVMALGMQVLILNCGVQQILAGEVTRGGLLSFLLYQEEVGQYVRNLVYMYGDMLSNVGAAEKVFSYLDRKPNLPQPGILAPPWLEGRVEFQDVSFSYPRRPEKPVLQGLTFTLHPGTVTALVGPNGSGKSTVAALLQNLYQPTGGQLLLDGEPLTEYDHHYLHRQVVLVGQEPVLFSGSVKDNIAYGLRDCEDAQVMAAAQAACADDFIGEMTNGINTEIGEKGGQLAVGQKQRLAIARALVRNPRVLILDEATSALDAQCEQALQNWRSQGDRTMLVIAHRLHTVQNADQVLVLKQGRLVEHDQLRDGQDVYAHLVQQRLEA

T2: murine TAP1/TAP2 complexes (Mus musculus, UniProt P21958+P36371)
T2 construct: full-length cDNAs encoding the murine TAP transporters were amplified from plasmids pFM370.1 and pFM372.3; made in house; host or cells: Sf9 insect cells (baculovirus), used as microsomes
T2 sequence (P21958 1-724): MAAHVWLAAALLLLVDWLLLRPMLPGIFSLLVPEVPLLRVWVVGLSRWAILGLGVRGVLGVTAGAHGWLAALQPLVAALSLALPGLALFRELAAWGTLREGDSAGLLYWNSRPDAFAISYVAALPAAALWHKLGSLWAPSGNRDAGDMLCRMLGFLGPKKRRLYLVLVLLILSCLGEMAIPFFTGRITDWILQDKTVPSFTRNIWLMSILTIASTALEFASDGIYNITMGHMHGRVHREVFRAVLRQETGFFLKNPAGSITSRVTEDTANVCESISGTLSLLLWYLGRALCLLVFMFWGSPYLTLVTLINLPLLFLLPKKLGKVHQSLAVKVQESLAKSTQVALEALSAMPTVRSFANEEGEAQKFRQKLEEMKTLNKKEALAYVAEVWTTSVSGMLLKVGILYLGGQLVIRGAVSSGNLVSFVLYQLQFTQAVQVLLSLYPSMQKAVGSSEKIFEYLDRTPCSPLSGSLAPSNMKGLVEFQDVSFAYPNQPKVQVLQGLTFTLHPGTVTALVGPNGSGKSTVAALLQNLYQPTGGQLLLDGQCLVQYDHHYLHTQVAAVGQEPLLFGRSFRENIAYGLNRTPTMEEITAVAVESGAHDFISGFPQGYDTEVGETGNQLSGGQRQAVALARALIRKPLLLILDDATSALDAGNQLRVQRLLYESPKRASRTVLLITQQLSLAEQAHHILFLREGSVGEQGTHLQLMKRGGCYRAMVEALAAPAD
T2 sequence (P36371 1-702): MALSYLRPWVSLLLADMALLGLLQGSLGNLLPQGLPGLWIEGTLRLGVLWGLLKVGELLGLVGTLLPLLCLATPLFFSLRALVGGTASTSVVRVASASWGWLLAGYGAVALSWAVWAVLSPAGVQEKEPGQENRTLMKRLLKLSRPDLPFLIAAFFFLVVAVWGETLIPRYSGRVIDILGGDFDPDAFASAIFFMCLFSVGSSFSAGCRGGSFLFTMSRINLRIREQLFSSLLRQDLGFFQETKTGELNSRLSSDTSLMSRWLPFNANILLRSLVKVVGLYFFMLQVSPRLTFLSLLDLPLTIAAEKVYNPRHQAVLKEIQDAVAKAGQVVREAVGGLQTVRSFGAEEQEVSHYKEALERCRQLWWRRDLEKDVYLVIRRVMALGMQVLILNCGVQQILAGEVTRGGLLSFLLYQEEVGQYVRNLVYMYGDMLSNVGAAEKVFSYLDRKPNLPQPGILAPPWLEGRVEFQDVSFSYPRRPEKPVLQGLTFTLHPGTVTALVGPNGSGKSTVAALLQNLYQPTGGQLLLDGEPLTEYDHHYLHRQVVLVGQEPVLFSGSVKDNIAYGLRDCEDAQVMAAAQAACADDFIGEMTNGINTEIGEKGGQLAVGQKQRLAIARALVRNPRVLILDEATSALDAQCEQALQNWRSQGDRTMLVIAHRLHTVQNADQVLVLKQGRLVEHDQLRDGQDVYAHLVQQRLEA


biological target: T1, murine TAP1/TAP2 complexes; assay: radioligand binding; settings: one partner purified

Row | Molecule | Kd [nM]
1 | RRYNASTEL (also: 125I-labeled, site not given here, also called 125I-R9L) [125I-labeled reporter peptide R9L (RRYNASTEL)] | 400

biological target: T2, murine TAP1/TAP2 complexes; assay: not given; type: binding; settings: peptides removed from the dataset as outliers; very hydrophobic

Row | Molecule | competitive binding to murine TAP
2 | AFILGIIITV | relatively weak or no competitive binding
3 | ILMIFISSFL | relatively weak or no competitive binding
4 | LMYIFAAL | relatively weak or no competitive binding
5 | MIVAWFLLL | relatively weak or no competitive binding
6 | WAIINTIYF | relatively weak or no competitive binding

Where no end group is shown, it is not given here.
